In PubChem BioAssay AID540317 (National Center for Advancing Translational Sciences (NCATS), 2011):
Among all 390,000 compounds or so, about 2,200 (0.56%) were called active. The inconclusive results got no clear call from the source; some entries with a clear call stand among them for comparison. Calls follow the shape of the dose curve; as a rule, active = well fitted inhibition curve with a large enough effect; inconclusive = small, poorly fitted or top-dose-only effect; inactive = no such curve, though single readings can be large or run the other way. A potency beside an inconclusive call is a rough fit, not a confirmed value.

molecular target: Chromobox protein homolog 1 (Homo sapiens) (UniProt P83916); assay: HTS for Inhibitors of HP1-beta Chromodomain Interactions with Methylated Histone Tails; settings: AlphaScreen HP1-beta / biotin-H3K9me3 peptide binding; series mostly up to 114 µM; activity change, negative = inhibition: at the top concentration; also: nearly all actives have a fitted effect of over 70% in size
Procedure, shortened: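 HP1-beta protein (50 nM final) preincubated 30 min at room temperature with biotinylated H3(1-18)K9me3 peptide (50 nM) in PBS pH 7.4, 0.01% Tween-20, then compound added for 30 min. AlphaScreen streptavidin donor/nickel chelate acceptor beads (10 ug/mL final), 30 min dark, luminescence read.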
Potency is read from the fitted curve at half-maximal effect; tags tell the direction and shape of the fitted curve.

Sequence of UniProt P83916 (P83916 whole entry, looked up): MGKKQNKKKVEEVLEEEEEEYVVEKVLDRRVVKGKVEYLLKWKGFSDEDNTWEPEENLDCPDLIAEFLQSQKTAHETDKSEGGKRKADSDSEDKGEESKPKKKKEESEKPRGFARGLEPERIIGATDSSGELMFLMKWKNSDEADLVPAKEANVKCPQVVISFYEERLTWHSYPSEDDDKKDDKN

Compound | Potency | activity change, negative = inhibition
Cc1ccc(OCC(=O)NC2=NCCS2)cc1 | inconclusive: 89.1 µM [inhibitor, single point] | –
CCOCCCNCC(=O)Nc1ccc(S(=O)(=O)NC(C)CC)cc1 (configuration not stated) | inconclusive: 35.5 µM [inhibitor, partial curve, poor fit] | –
O=C(c1ccc(Cl)cc1)[C@@H]1[C@@H]2C(=O)N(c3cccc4ccccc34)C(=O)[C@@H]2C2c3ccccc3C=NN21 (some centres not stated) | – | inactive: 0.364%
COc1ccccc1Nc1nc(-c2c(C)[nH]c3ccccc23)cs1 | inconclusive: 50.1 µM [inhibitor, partial curve, poor fit] | –
CCOC(=O)c1c(N)sc(C(=O)Nc2ccccc2)c1C | inconclusive: 17.8 µM [inhibitor, full curve] | –
CCCS(=O)(=O)N1CCN(C2CCC(C)CC2)CC1 (configuration not stated) | inconclusive: 56.2 µM [inhibitor, partial curve, poor fit] | –
N=C1/C(=C/c2ccc(-c3cccc(C(=O)O)c3)o2)C(=O)N=C2SC(CC(=O)N3CCOCC3)=NN12 | inconclusive: 56.2 µM [inhibitor, partial curve, poor fit] | –
CCOc1ccccc1C1CC(=O)Nc2c1c(=O)n(C)c1ncnn21 (configuration not stated) | – | inactive: 1.16%
COc1ccc(OC)c(-n2c(Cn3c(-c4ccccn4)nc4ccccc43)n[nH]c2=S)c1 | inconclusive: 79.4 µM [inhibitor, partial curve, poor fit] | –
COc1cc(Sc2ccc(C)cc2)c(OC)cc1N | active: 28.2 µM | –
Oc1ccc2ccccc2c1N=Nc1ccccc1F | inconclusive: 3.98 µM [inhibitor, full curve, poor fit] | –
Oc1ccc(CN2CCN(c3ncccn3)CC2)cc1 | inconclusive: 22.4 µM [inhibitor, full curve] | –
CN1CCCC(CC2Oc3ccccc3Sc3ccccc32)C1 (configuration not stated) | inconclusive: 50.1 µM [inhibitor, partial curve, poor fit] | –
Cc1onc(C(=O)Nc2sc3c(c2C(N)=O)CCCC3)c1[N+](=O)[O-] | inconclusive: 10 µM [inhibitor, full curve] | –
COc1ccc(N2CCN(C(CNS(=O)(=O)c3ccc(C)cc3)c3ccccc3)CC2)cc1 (configuration not stated) | active: 31.6 µM | –
CC(=O)N1CCN(CC(=O)Nc2ccc(C)c(S(=O)(=O)N(C)C)c2)CC1 | inconclusive: 79.4 µM [inhibitor, single point] | –
O=C(CSc1nnc(NC2CCCCC2)s1)NN1C(=O)NC2(CCCCC2)C1=O | – | inactive: 38.7%
N#C/C(=C\c1ccc(OCc2ccccc2)cc1)C(=O)Nc1ccc(C(=O)O)cc1 | inconclusive: 56.2 µM [inhibitor, partial curve, poor fit] | –
O=C(NC1CCCCC1)C(c1ccc(Cl)cc1)N(C(=O)c1cnccn1)c1ccc2c(c1)OCO2 (configuration not stated) | – | inactive: 21.6%
CCn1c2ccccc2c2cc(NC(=O)CNC)ccc21 | inconclusive: 17.8 µM [inhibitor, partial curve, poor fit] | –
CC(C)(C)NC(=O)Cn1c(=O)n(CC(=O)NC(C)(C)C)c2ccccc21 | – | inactive: 2.19%
N#Cc1ccccc1Sc1ccccc1C(=O)NCC(c1ccco1)N1CCCCC1 (configuration not stated) | – | inactive: 23.2%
COc1ccc(/C=N/Nc2cc(N(C)C)nc(N(C)C)n2)cc1 | inconclusive: 35.5 µM [inhibitor, single point] | –

Compound | Potency | activity change, negative = inhibition
Cc1cc(-c2n[nH]c(=S)n2/N=C/C=C/c2ccccc2)n[nH]1 | inconclusive: 25.1 µM [inhibitor, partial curve, poor fit] | –
CCOc1ccccc1/C=c1\sc2nc(-c3ccco3)nn2c1=O | inconclusive: 35.5 µM [inhibitor, partial curve] | –
CC1Cc2ccccc2N1C(=O)CNCCCN(C)C (configuration not stated) | inconclusive: 14.1 µM [inhibitor, partial curve, poor fit] | –
COc1ccc(OC)c(N2C(=O)[C@@H]3C(c4ccccc4Cl)=NO[C@@H]3C2=O)c1 | active: 17.8 µM | –
COc1cc(NC(C)C(=O)N2CC(C)OC(C)C2)cc(OC)c1 (configuration not stated) | active: 15.8 µM | –
CC(C)C1C(C#N)=C(N)SC(N)=C1C#N | – | inactive: 40.6%
COc1ccc(Nc2nc(N)nc(CN3CCC(C)CC3)n2)cc1 | – | inactive: 7.4%
O=C(O)C(c1ccccc1)N1C(=O)/C(=C\c2ccc(-c3ccccc3Cl)o2)SC1=S (configuration not stated) | inconclusive: 56.2 µM [inhibitor, partial curve, poor fit] | –
Cc1nc(Nc2cnc(/C=C/c3cc(C(=O)Nc4cccc(C(F)(F)F)c4)ccc3C)cn2)cc(N2CCNCC2)n1 | inconclusive: 89.1 µM [inhibitor, single point] | –
CC1Cc2ccccc2N1C(=S)NC(=O)c1ccc(Cl)cc1Cl (configuration not stated) | inconclusive: 35.5 µM [inhibitor, partial curve] | –
Cc1ccc(-c2nc3c(=O)n(C)c4ccccc4c3o2)cc1 | – | inactive: 10.3%
Cc1cccc(NC(=S)c2nc3ccccc3s2)c1 | active: 28.2 µM | –
CCCC(=O)NC1=C(Cl)C(=O)c2ccccc2C1=O | active: 7.08 µM | –
CN(c1ccc(OCc2ccc([N+](=O)[O-])cc2)cc1)S(=O)(=O)c1ccccc1 | inconclusive: 70.8 µM [inhibitor, single point] | –
O=C(O)Cc1sc(Nc2ccccc2)nc1-c1ccc(Cl)cc1 | inconclusive: 28.2 µM [inhibitor, partial curve, poor fit] | –
Cc1c(C#N)c(O)[nH]c(=O)c1N=Nc1ccc(S(N)(=O)=O)cc1 | inconclusive: 56.2 µM [inhibitor, partial curve, poor fit] | –
CCN(CC)c1ccc(NC(=O)c2cccn2-c2nnc(N3CCCCC3)s2)c(C)c1 | inconclusive: 50.1 µM [inhibitor, partial curve] | –
COc1cc(CC(=O)Nc2cc(S(C)(=O)=O)ccc2Cl)cc(OC)c1OC | – | inactive: 25.2%
COC(=O)Cc1ccc(NC(C)=O)cc1 | – | inactive: 38%
CCOC(=O)c1ccc(NC(=O)Nc2ccn(C)n2)cc1 | inconclusive: 89.1 µM [inhibitor, single point] | –
O=C(CNCc1cccc2ccccc12)Nc1ccccc1[N+](=O)[O-] | inconclusive: 56.2 µM [inhibitor, single point] | –
CCN(CC)S(=O)(=O)c1ccc(NC(=O)CNC2CCCCC2)cc1 | inconclusive: 20 µM [inhibitor, full curve, poor fit] | –
O=c1c(O)c(-c2cc(O)c(O)c(O)c2)oc2cc(O)cc(O)c12 | inconclusive: 7.94 µM [inhibitor, full curve, poor fit] | –

Compound | Potency | activity change, negative = inhibition
C/C(=N\NC(=S)NCc1ccccc1)c1ccc(Cl)cc1 | inconclusive: 39.8 µM [inhibitor, single point] | –
O=[N+]([O-])c1cccc(C=NN=C2c3ccccc3-c3ccccc32)c1 | inconclusive: 28.2 µM [inhibitor, partial curve] | –
Cc1ccc(S(=O)(=O)N2CCN(C(=O)c3ccc4nc[nH]c4c3)CC2)cc1 | – | inactive: 18%
CC(=O)c1c(C(C)=O)c(C)n(-c2nc(-c3ccc(Br)cc3)c(C)s2)c1C | inconclusive: 39.8 µM [inhibitor, partial curve] | –
CCC(=O)N1CCN(CCN=CC2=C(O)CC(c3ccc(OC)cc3)CC2=O)CC1 (configuration not stated) | inconclusive: 39.8 µM [inhibitor, single point] | –
COc1ccc(CCNC(=O)C(C)n2c(=O)cc(-c3ccccc3)c3c(C)nn(C)c32)cc1OC (configuration not stated) | inconclusive: 79.4 µM [inhibitor, single point] | –
O=C(NCc1ccccc1Cl)C1CCN(S(=O)(=O)N2CCC3(CC2)OCCO3)CC1 | – | inactive: 23.4%
Cc1ccc(-c2nc3sccn3c2Nc2ccc(C)c(C)c2)cc1 | inconclusive: 14.1 µM [inhibitor, full curve] | –
COc1ccc(OCc2cc(C(=O)NC(C)Cn3cncn3)no2)c(Cl)c1 (configuration not stated) | – | inactive: 27.5%
COc1cc2c(cc1OC)C(c1cc3ccc(C)cc3[nH]c1=O)N(C(=O)c1ccco1)CC2 (configuration not stated) | inconclusive: 50.1 µM [inhibitor, partial curve] | –
Cc1ccc(-n2nc3c(c2NC(=O)c2ccc4c(c2)OCO4)CS(=O)C3)c(C)c1 (configuration not stated) | – | inactive: 17.6%
COc1ccc(NCC(=O)Nc2ccc(Cl)cc2C)c(OC)c1 | inconclusive: 50.1 µM [inhibitor, partial curve] | –
C[C@H](CO)N1C[C@H](C)[C@@H](CN(C)C(=O)Nc2ccc3c(c2)OCO3)Oc2c(NC(=O)Nc3ccccc3)cccc2C1=O | – | inactive: 5.79%
O=C(NC(=S)NCc1ccccc1)c1ccc2c(c1)OCO2 | inconclusive: 28.2 µM [inhibitor, partial curve, poor fit] | –
N#Cc1nc(-c2ccc(COc3ccccc3)o2)oc1N1CCCCC1 | inconclusive: 5.01 µM [inhibitor, full curve, poor fit] | –
CCN(CC)S(=O)(=O)c1ccc(N2CCOCC2)c(NC(=S)NC(=O)c2ccco2)c1 | inconclusive: 28.2 µM [inhibitor, full curve] | –
CCCSC(=S)c1c(C)[nH]n(-c2ccccc2)c1=O | inconclusive: 28.2 µM [inhibitor, full curve] | –
COc1ccc(NC(=S)NNc2ccc(S(=O)(=O)Nc3ccccc3C(=O)O)cc2[N+](=O)[O-])cc1 | active: 11.2 µM | –
N#CC1=C2SCN(C3CCCCC3)CN2C(=O)CC1c1ccc(Cl)cc1 (configuration not stated) | inconclusive: 15.8 µM [inhibitor, full curve, poor fit] | –
CC1CCN(C(=S)c2ccccc2O)CC1 | inconclusive: 17.8 µM [inhibitor, partial curve, poor fit] | –
CCOc1ccc(CN(CCc2ccc3c(c2)OCO3)Cc2cc(OC)c(OC)cc2OC)cc1 | active: 11.2 µM | –
